Source: PubChem BioAssay AID624418 (National Center for Advancing Translational Sciences (NCATS), 2012)
Among all 410,000 compounds or so, about 530 (0.13%) were called active. Inconclusive means that the source gave no clear call. Such entries were picked first, then a sample of the others. Calls come from the whole dose curve; as a rule, active = well fitted inhibition curve with a large enough effect; inconclusive = small, poorly fitted or top-dose-only effect, or another doubt; inactive = no such curve, though single readings can be large or run the other way. Potencies beside an inconclusive call are fits to weak or partial responses and may not hold up.

Experiment: qHTS of GLP-1 Receptor Inverse Agonists: Cytotox Screen
Conditions: HEK293 cAMP-luciferase reporter cells, luminescence, 24 h; activity change, negative = inhibition: at 38.3 µM (top of the series) unless noted
Summary of the method: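 Here, cytotoxicity is scored as loss of luminescence. The MLSMR collection was tested on cells seeded in medium containing 10% Nu serum, with a 24 hr compound exposure preceded by 12 hours of culture.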
% is set by controls: 0 for no effect and ±100 for the full control effect; potency is the fitted concentration of half-maximal effect.

Compound | activity change, negative = inhibition | Potency
S=C1NC(c2ccccc2)=NCN1c1ccc(Cl)cc1 | inactive: -8.39% | 
CC1CCCCN1CCCNC(=O)c1nn(C)c2c1CSc1ccccc1-2 (stereo not drawn) |  | inconclusive: 28.2 µM [inhibitor, single point]
CCn1cc(/C=N\NC(=O)c2ccc(F)cc2)cn1 |  | inconclusive: 20 µM [inhibitor, single point]
CC1CCN(CCCNC(=O)c2cc3c(Cl)nc4ccccc4c3s2)CC1 |  | inconclusive: 28.2 µM [inhibitor, single point]
C#CCOCCOCCOCCNc1nc(N2CCN(C(=O)Cn3cc(CCCN=C(N)N)nn3)CC2)nc(N2CCN(C(=O)Cn3cc(CC(C)O)nn3)CC2)n1 (stereo not drawn) |  | inconclusive: 0.501 µM [inhibitor, full curve, poor fit]
COc1ccc2sc(N(CCCN(C)C)C(=O)c3ccc(C(=O)c4ccccc4)cc3)nc2c1 |  | inconclusive: 20 µM [inhibitor, single point]
Cc1ccc(C(=O)NCCc2ccccc2)cc1S(=O)(=O)N1CCOCC1 |  | inconclusive: 1.26 µM [inhibitor, full curve, poor fit]
Cc1ccc2c(c1)c1ncnc(N3CCN(c4ccccc4)CC3)c1n2C | inactive: -5.87% | 
Cc1cccc(OC(=O)c2cc(-c3ccc(Cl)cc3)on2)c1C | inactive: -4.83% | 
COc1ccccc1CNC(=O)c1ccc2nc3[nH]c4ccccc4c3nc2c1 |  | inconclusive: 20 µM [inhibitor, single point]
N/C(=N\OC(=O)c1cccc(Cl)c1)c1ccccn1 |  | inconclusive: 22.4 µM [inhibitor, single point]
COc1ccc(CN2CCOCCOCCN(Cc3ccc(OC)cc3)CCOCCOCC2)cc1 |  | inconclusive: 28.2 µM [inhibitor, single point]
CSc1cccc(CN2CCC(CO)(Cc3cccc(C(F)(F)F)c3)CC2)c1 |  | inconclusive: 28.2 µM [inhibitor, single point]
COc1cc(N=Nc2ccc(C)cc2S(N)(=O)=O)c(C)cc1N |  | inconclusive: 12.6 µM [inhibitor, partial curve, poor fit]
CC[C@H](CO)Nc1nc(Nc2cccc(Cl)c2)c2ncn(C(C)C)c2n1 |  | inconclusive: 0.794 µM [inhibitor, full curve, poor fit]
COc1ccc(C)cc1NC(=O)CC(=O)Nc1ccc2nc3n(c(=O)c2c1)CCCCC3 | inactive: -1.03% | 
CCOc1ccc(S(=O)(=O)N(C(=O)c2ccncc2)c2ccc3oc(C)c(C(=O)OC)c3c2)cc1 |  | inconclusive: 1.58 µM [inhibitor, full curve, poor fit]
O=C(c1ccc(S(=O)(=O)Cc2cc(F)ccc2F)c([N+](=O)[O-])c1)N1CCCCC1 |  | inconclusive: 28.2 µM [inhibitor, single point]
